# The list shows a part of the results.
# B1: SSR2 (Sclerotium rolfsii) (protein)
# chain: MVYKITVRVYQTNPDAFFHPVEKTVWKYANGGTWSITDDQHVLTMGGSGTSGTLRFHADNGESFTATFGVHNYKRWCDIVTNLAADETGMVINQQYYSQKNREEARERQLSNYQVKNAKGRNFQIVYTEAEGNDLHANLIIG
# What was measured:
# Assay in all cases: glycan array binding signal (z-score within array); higher = stronger binding
# Conditions in all cases: glycan notation: IUPAC condensed, linker removed
# [1] = target: Man(a1-2)Man(a1-3)[Man(a1-2)Man(a1-6)]Man
# Outline: (§1)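 Columns mapping to the same glycan were averaged after glycan names were converted to IUPAC-condensed notation. The data come from 3228 arrays in the Consortium for Functional Glycomics database, limited to those with an available protein sequence. Binding is reported as a within-array Z-score averaged across arrays of one protein sequence and across linkers.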
# [2] = target: Man(a1-2)Man(a1-3)[Man(a1-2)Man(a1-6)]Man(a1-6)[Man(a1-2)Man(a1-2)Man(a1-3)]Man
# Outline: as §1
# [3] = target: Man(a1-2)Man(a1-3)[Man(a1-2)Man(a1-6)]Man(a1-6)[Man(a1-2)Man(a1-2)Man(a1-3)]Man(b1-4)GlcNAc(b1-4)GlcNAc
# Outline: as §1
# [4] = target: Man(a1-2)Man(a1-3)[Man(a1-6)]Man(a1-6)[Man(a1-2)Man(a1-3)]Man(b1-4)GlcNAc(b1-4)GlcNAc
# Outline: as §1
# [5] = target: Man(a1-2)Man(a1-6)[Man(a1-3)]Man(a1-6)[Man(a1-2)Man(a1-2)Man(a1-3)]Man
# Outline: as §1
# [6] = target: Man(a1-2)Man(a1-6)[Man(a1-3)]Man(a1-6)[Man(a1-2)Man(a1-2)Man(a1-3)]Man(b1-4)GlcNAc(b1-4)GlcNAc
# Outline: as §1
# [7] = target: Man(a1-3)[Man(a1-6)]Man
# Outline: as §1
# [8] = target: Man(a1-3)[Man(a1-6)]Man(a1-6)[Man(a1-2)Man(a1-3)]Man(b1-4)GlcNAc(b1-4)GlcNAc
# Outline: as §1
# [9] = target: Man(a1-3)[Man(a1-6)]Man(a1-6)[Man(a1-3)]Man
# Outline: as §1
# [10] = target: Man(a1-3)[Man(a1-6)]Man(a1-6)[Man(a1-3)]Man(b1-4)GlcNAc(b1-4)GlcNAc
# Outline: as §1
# [11] = target: Man(a1-3)[Man(a1-6)]Man(b1-4)GlcNAc(b1-4)GlcNAc
# Outline: as §1
# [12] = target: Man(a1-3)[Man(a1-6)]Man(b1-4)GlcNAc(b1-4)[Fuc(a1-6)]GlcNAc
# Outline: as §1
# [13] = target: Man(a1-6)Man
# Outline: as §1
# [14] = target: Man(b1-4)GlcNAc
# Outline: as §1
# [15] = target: MurNAc(b1-4)GlcNAc
# Outline: as §1
# [16] = target: Neu5Ac(a2-3)Gal
# Outline: as §1
# [17] = target: Neu5Ac(a2-3)Gal(b1-3)GalNAc
# Outline: as §1
# [18] = target: Neu5Ac(a2-3)Gal(b1-3)GalNAc(b1-3)Gal(a1-4)Gal(b1-4)Glc
# Outline: as §1
# [19] = target: Neu5Ac(a2-3)Gal(b1-3)GalNAc(b1-4)Gal(b1-4)Glc
# Outline: as §1
# [20] = target: Neu5Ac(a2-3)Gal(b1-3)GalNAc(b1-4)[Neu5Ac(a2-3)]Gal(b1-4)Glc
# Outline: as §1
# [21] = target: Neu5Ac(a2-3)Gal(b1-3)GalNAc(b1-4)[Neu5Ac(a2-8)Neu5Ac(a2-3)]Gal(b1-4)Glc
# Outline: as §1
# [22] = target: Neu5Ac(a2-3)Gal(b1-3)GalNAc6S
# Outline: as §1
# [23] = target: Neu5Ac(a2-3)Gal(b1-3)GlcNAc
# Outline: as §1
# [24] = target: Neu5Ac(a2-3)Gal(b1-3)GlcNAc(b1-2)Man
# Outline: as §1
# [25] = target: Neu5Ac(a2-3)Gal(b1-3)GlcNAc(b1-2)Man(a1-3)[GlcNAc(b1-4)][Neu5Ac(a2-3)Gal(b1-3)GlcNAc(b1-2)Man(a1-6)]Man(b1-4)GlcNAc(b1-4)GlcNAc
# Outline: as §1
# [26] = target: Neu5Ac(a2-3)Gal(b1-3)GlcNAc(b1-2)Man(a1-3)[Neu5Ac(a2-3)Gal(b1-3)GlcNAc(b1-2)Man(a1-6)]Man(b1-4)GlcNAc(b1-4)GlcNAc
# Outline: as §1
# [27] = target: Neu5Ac(a2-3)Gal(b1-3)GlcNAc(b1-2)[Neu5Ac(a2-3)Gal(b1-3)GlcNAc(b1-4)]Man(a1-6)[Neu5Ac(a2-3)Gal(b1-3)GlcNAc(b1-2)Man(a1-3)]Man(b1-4)GlcNAc(b1-4)GlcNAc
# Outline: as §1
# [28] = target: Neu5Ac(a2-3)Gal(b1-3)GlcNAc(b1-3)Gal(b1-3)GlcNAc
# Outline: as §1
# [29] = target: Neu5Ac(a2-3)Gal(b1-3)GlcNAc(b1-3)Gal(b1-4)GlcNAc
# Outline: as §1
# [30] = target: Neu5Ac(a2-3)Gal(b1-3)GlcNAc(b1-3)GalNAc
# Outline: as §1
# [31] = target: Neu5Ac(a2-3)Gal(b1-3)GlcNAc(b1-4)Gal(b1-4)Glc
# Outline: as §1
# [32] = target: Neu5Ac(a2-3)Gal(b1-3)GlcNAc(b1-6)GalNAc
# Outline: as §1
# [33] = target: Neu5Ac(a2-3)Gal(b1-3)GlcNAc6S
# Outline: as §1
# [34] = target: Neu5Ac(a2-3)Gal(b1-3)[Fuc(a1-4)]GlcNAc
# Outline: as §1
# [35] = target: Neu5Ac(a2-3)Gal(b1-3)[Fuc(a1-4)]GlcNAc(b1-3)Gal(b1-3)[Fuc(a1-4)]GlcNAc
# Outline: as §1
# [36] = target: Neu5Ac(a2-3)Gal(b1-3)[Fuc(a1-4)]GlcNAc(b1-3)Gal(b1-4)[Fuc(a1-3)]GlcNAc
# Outline: as §1
# [37] = target: Neu5Ac(a2-3)Gal(b1-3)[GlcNAc(b1-6)]GalNAc
# Outline: as §1
# [38] = target: Neu5Ac(a2-3)Gal(b1-3)[Neu5Ac(a2-6)]GalNAc
# Outline: as §1
# [39] = target: Neu5Ac(a2-3)Gal(b1-3)[Neu5Ac(a2-6)]GlcNAc(b1-3)[Fuc(a1-3)[Gal(b1-4)]GlcNAc(b1-6)]Gal(b1-4)Glc
# Outline: as §1
# [40] = target: Neu5Ac(a2-3)Gal(b1-3)]Neu5Ac(a2-3)Gal(b1-4)]GlcNAc
# Outline: as §1
# [41] = target: Neu5Ac(a2-3)Gal(b1-4)Glc
# Outline: as §1
# [42] = target: Neu5Ac(a2-3)Gal(b1-4)GlcNAc
# Outline: as §1
# [43] = target: Neu5Ac(a2-3)Gal(b1-4)GlcNAc(b1-2)Man
# Outline: as §1
# [44] = target: Neu5Ac(a2-3)Gal(b1-4)GlcNAc(b1-2)Man(a1-3)[GlcNAc(b1-4)][Neu5Ac(a2-3)Gal(b1-4)GlcNAc(b1-2)Man(a1-6)]Man(b1-4)GlcNAc(b1-4)GlcNAc
# Outline: as §1
# [45] = target: Neu5Ac(a2-3)Gal(b1-4)GlcNAc(b1-2)Man(a1-3)[Neu5Ac(a2-3)Gal(b1-4)GlcNAc(b1-2)Man(a1-6)]Man(b1-4)GlcNAc(b1-4)GlcNAc
# Outline: as §1
binder,measurement,setting,value
B1,glycan array binding signal (z-score),[1],-0.283
same,glycan array binding signal (z-score),[2],-0.301
same,glycan array binding signal (z-score),[3],-0.345
same,glycan array binding signal (z-score),[4],-0.276
same,glycan array binding signal (z-score),[5],-0.303
same,glycan array binding signal (z-score),[6],-0.294
same,glycan array binding signal (z-score),[7],-0.286
same,glycan array binding signal (z-score),[8],-0.244
same,glycan array binding signal (z-score),[9],-0.275
same,glycan array binding signal (z-score),[10],-0.271
same,glycan array binding signal (z-score),[11],0.392
same,glycan array binding signal (z-score),[12],-0.287
same,glycan array binding signal (z-score),[13],-0.266
same,glycan array binding signal (z-score),[14],-0.281
same,glycan array binding signal (z-score),[15],-0.283
same,glycan array binding signal (z-score),[16],-0.283
same,glycan array binding signal (z-score),[17],2.28
same,glycan array binding signal (z-score),[18],-0.284
same,glycan array binding signal (z-score),[19],-0.202
same,glycan array binding signal (z-score),[20],-0.28
same,glycan array binding signal (z-score),[21],-0.286
same,glycan array binding signal (z-score),[22],2.31
same,glycan array binding signal (z-score),[23],-0.272
same,glycan array binding signal (z-score),[24],-0.296
same,glycan array binding signal (z-score),[25],-0.29
same,glycan array binding signal (z-score),[26],-0.273
same,glycan array binding signal (z-score),[27],-0.136
same,glycan array binding signal (z-score),[28],-0.291
same,glycan array binding signal (z-score),[29],-0.288
same,glycan array binding signal (z-score),[30],-0.272
same,glycan array binding signal (z-score),[31],-0.368
same,glycan array binding signal (z-score),[32],-0.294
same,glycan array binding signal (z-score),[33],-0.264
same,glycan array binding signal (z-score),[34],-0.284
same,glycan array binding signal (z-score),[35],-0.284
same,glycan array binding signal (z-score),[36],-0.26
same,glycan array binding signal (z-score),[37],0.987
same,glycan array binding signal (z-score),[38],0.198
same,glycan array binding signal (z-score),[39],-0.288
same,glycan array binding signal (z-score),[40],-0.219
same,glycan array binding signal (z-score),[41],-0.264
same,glycan array binding signal (z-score),[42],-0.29
same,glycan array binding signal (z-score),[43],-0.265
same,glycan array binding signal (z-score),[44],-0.284
same,glycan array binding signal (z-score),[45],-0.284

# Reference: the supplement of paper PMC8728848
